This note sets out measurements from PubChem BioAssay AID1745853 (National Center for Advancing Translational Sciences (NCATS), 2022).

Holding throughout (experiment): Primary Screen for Target Class Profiling of Small Molecule Inhibitors of Methyltransferases
Experiment [1] deals with Glycine N-methyltransferase (Homo sapiens) (UniProt Q14749). The following applies: purified enzyme, MTase-Glo SAH luminescence; measured here: GNMT inhibition; at 40 µM; stronger effect = lower value. The method, boiled down: (§1)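 Each enzyme was reacted with SAM and its substrate, with compounds tested once at 40 uM; SAH formed was read by MTase-Glo luminescence.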
The target of experiment [2] is Guanidinoacetate N-methyltransferase (Homo sapiens) (UniProt Q14353). The following applies: purified enzyme, MTase-Glo SAH luminescence; measured here: GAMT inhibition; at 40 µM; stronger effect = lower value. The method, boiled down: as §1
The target in experiment [3] is Histamine N-methyltransferase (Homo sapiens) (UniProt P50135). Conditions: purified enzyme, MTase-Glo SAH luminescence; measured here: HNMT inhibition; at 40 µM; stronger effect = lower value. The method, boiled down:
as §1

The target of experiment [4] is Nicotinamide N-methyltransferase (Homo sapiens) (UniProt P40261). Conditions: purified enzyme, MTase-Glo SAH luminescence; measured here: NNMT inhibition; at 40 µM; stronger effect = lower value. The method, boiled down:
as §1

Experiment [5] addresses Phenylethanolamine N-methyltransferase (Homo sapiens) (UniProt P11086). The following applies: purified enzyme, MTase-Glo SAH luminescence; measured here: PNMT inhibition; at 40 µM; stronger effect = lower value. The method, boiled down: as §1

Some of the results follow. Further columns of the screen follow, without active or inactive calls.
On the % scale 0 is the no-effect control and ±100 the full control effect.

Turning to `O=C(Cn1nc2n(CCc3ccccc3)c(=O)c3ccccc3n2c1=O)NCc1ccc(Cl)cc1`, the activity change, negative = inhibition is 3.52% in experiment [1]; 3.04% in experiment [2]; 8.18% in experiment [3]; 0.416% in experiment [4]; 1.86% in experiment [5].
For `COc1cccc(CSc2nnc3n(Cc4ccc(F)cc4)c(=O)c4ccccc4n23)c1`, the activity change, negative = inhibition in experiment [1] is 2.59%; in experiment [2], 0%; in experiment [3], 5.79%; in experiment [4], -5.17%; in experiment [5], -0.264%.
In the case of `CC(=O)Nc1c2n(c3ccccc13)CC(C)(C(=O)NCCC(C)C)N(Cc1ccccc1F)C2=O` (stereo not given), the activity change, negative = inhibition in experiment [1] turned out to be 1.69%; in experiment [2], 6.72%; in experiment [3] it was 0.081%; in experiment [4], 2.43%; in experiment [5], 1.49%.
For `CCCN1C(=O)c2cc(C(=O)NCc3ccc4c(c3)OCO4)nn2CC1(C)C(=O)NC1CCCC1` (stereo not given) the same measures were 1.73%, 2.24%, 2.2%, 1.44% and 1.13%.
For `CC(C)CCNC(=O)C1(C)Cn2nc(C(C)(C)C)cc2C(=O)N1Cc1ccccc1Cl` (stereo not given) the same measures were -2.02%, 3.36%, -2.53%, -4.72% and -4.08%.
For `CCOc1ccc(C2Cn3nnc(-c4nc(-c5ccccc5OC)no4)c3CO2)cc1` (stereo not given), in that order: -3.75%, -5.19%, -2.7%, -7.05% and -0.261%.
Regarding `COc1cccc(CNC(=O)c2c(C)noc2-c2ccccc2OC)c1`, the activity change, negative = inhibition in experiment [1] is -2.31%; in experiment [2], -4.08%; in experiment [3], -0.273%; in experiment [4], -4.53%; in experiment [5], 0.239%.
Regarding `CC(O)CN1CC2(CCC1=O)CCN(C(=O)c1ccnn1C)CC2` (stereo not given), the activity change, negative = inhibition is -2.79% in experiment [1]; -3.72% in experiment [2]; 0.622% in experiment [3]; -4.93% in experiment [4]; -19.9% in experiment [5].
`COc1ccc(CCNC(=O)c2ccc3c(=O)[nH]c4c(C(=O)NC5CCCC5)sc(=S)n4c3c2)cc1OC`: the activity change, negative = inhibition in experiment [1] is -48.5%; in experiment [2] it was 3.45%; in experiment [3] it was -0.358%; in experiment [4], -38.5%; in experiment [5], -14.8%.
For `Cc1ncsc1C(=O)N1CCCC(C)(Cc2ccc3c(c2)OCO3)C1` (stereo not given), in that order: -3.56%, -1.23%, 0.614%, -12.1% and 12.3%.
As to `COc1ccc(CN2CCOc3nc(-c4cccc(C(F)(F)F)c4)ncc3C2=O)cc1`, the activity change, negative = inhibition in experiment [1] was -5.86%; in experiment [2], -6.42%; in experiment [3], -2.46%; in experiment [4], -3.15%; in experiment [5] it was -9.63%.
For `O=C1CN(Cc2ccc(Cl)cc2)S(=O)(=O)c2ccccc2N1Cc1cccc(F)c1` the same measures were 12.9%, 0%, 9.29%, 8.43% and 7.28%.
For `CCc1c(C(=O)N2CCc3c(c(C(=O)O)nn3CC3CC3)C2)csc1C`, in that order: -11%, -1.75%, -1.4%, -2.89% and 0.332%.
For `C[C@@H]1CC[C@]2(C(=O)OC3OC(CO)C(O)C(O)C3O)CC[C@]3(C)C(=CCC4[C@@]5(C)CC[C@H](O)[C@](C)(C(=O)O)C5CC[C@]43C)C2[C@]1(C)O` (stereo not given in full), in that order: 4.66%, 1.6%, 9.23%, -10.3% and 0.65%.
For `COCCOC1CCN(C(=O)Nc2cccc(C)c2)CC1`, the activity change, negative = inhibition in experiment [1] is -3.93%; in experiment [2], -5.18%; in experiment [3], -0.892%; in experiment [4], -5.79%; in experiment [5], -2.98%.
For `C=C1CCN([C@H](C)[C@](O)(Cn2cncn2)c2ccc(F)cc2F)CC1`, in that order: -0.205%, 4.75%, 8.22%, -13.3% and 1.46%.
